Laboratory results from the RNAGym collection of RNA variant scans (doi:10.1073/pnas.2313332121).
Variants at the floor of the assay are shown more often than the library holds them.

B1: TPR 5TU (parent)
chain: GGAUCUUCUCGAUCUAACAAAAAAGACAAAUCUGCCACAAAGCUUGAGAGCAUCUUCGGAUGCAGAGGCGGCAGCCUUCGGUGGCGCGAUAGCGCCAACGUUCUCAACUAUGACACGCAAAACGCGUGCUCCGUUGAAUGGAGUUUAUCAUG

Variants of: B1
Experiment: polymerase ribozyme fitness, log enrichment relative to wild type (log ratio); higher = more active; in vitro selection for triplet polymerase activity
Procedure, shortened: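 Fitness is a logarithmic measure of how a genotype enriched relative to the wild type, with replicate averages weighted by inverse variance. The logarithm uses base 2, and enrichment came from Illumina sequencing of input and output libraries. Those libraries were PCR-built, transcribed mutants of each subunit of a heterodimeric triplet polymerase ribozyme, passed through one triplicate in vitro selection round that included frozen incubation at −7 °C, gel excision of extended constructs and streptavidin-bead capture. Genotypes were kept only if they had ≥10 input reads and ≥1 read per output.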

Variant	polymerase ribozyme fitness (log ratio)
G59A U102C A107U	≤ -4.2
G58A G84A U104G G126U	-0.778
G59A A115C C116A A138G	≤ -4.2
C57A G128C	-2.62
C57A G86U A107U C108G	≤ -4.2
G58A U78G C87U	≤ -4.2
C57A U61G U78G G88A U148A	≤ -4.2
C57G C87U A89C C116A C132A	-4.13
G58A G59U G65U C96G C105G	≤ -4.2
G58A A66G C87U A115C	≤ -4.2
C57U C76U A91U C93G C132A	≤ -4.2
C57G A91U A119U G143U	≤ -4.2
G58A C79U	-1.65
G58C G71A G133A U148G	≤ -4.2
G58A G143U	-1.82
C57A U78C C95G C99G	-3.07
C57U C93G G100A U109A C114G	≤ -4.2
C57G C69G U101G C118U	-2.81
G59C G84A C85A G117C C149A	≤ -4.2
G58C C85U G117U	-0.00983
G59A U127A	-3.81
G58U G86A C87A	≤ -4.2
G59C C149A	≤ -4.2
G58A C96U	0.538

Variant	polymerase ribozyme fitness (log ratio)
C57U C95A G136A	-0.1
G58A C149A	-3.67
C57A U77G G88U C96U A137C U144A	≤ -4.2
G59A G84C C99U C105U	≤ -4.2
G58C A150U	1.46
C57U C87G G88U C95G C116U C123A U134C	≤ -4.2
C57U U101A A107C	≤ -4.2
G59A C75U C85U U144A	-1.61
C57U G84C C99U A122G C149U	≤ -4.2
G58A C85G A115G	-2.89
C57U U61A C103G A115U A137U	≤ -4.2
G59C C87G	≤ -4.2
G59A G80C A120U U130A U139A A147U	≤ -4.2
G58A G62A U78G C87A U104G A119G U148C	≤ -4.2
G59C C85U C103U A137C G152U	≤ -4.2
C57U U78A G83A U102G	≤ -4.2
G58A U104A	0.105
G59C C93A A97G C118A U148A	≤ -4.2
G58C A60G C85A G143U U146G	≤ -4.2
G59C U61C U90C	≤ -4.2
G58C A73U C93G U102C A147C	≤ -4.2
C57G C75U C96A C125U C149A	≤ -4.2
C57U G71C G83A G86A A98U A107U U127G G133C	≤ -4.2
G59C A73U C96A G143A	≤ -4.2

Variant	polymerase ribozyme fitness (log ratio)
G59C C85G	-1.64
G59C C75U	-1.52
G59C C87A U101C G141U A147U	≤ -4.2
G58A C85U A106G	-0.0661
G59C G65U C85U C99G G126A G136C	≤ -4.2
G59C A119U C149U	-0.775
C57U C123G C129A G140C	≤ -4.2
C57G G58C C75G G83A	≤ -4.2
C57U G68U U77A G94A C116U G140A	≤ -4.2
C57A G74U G88U A115G A119U U145G C149G	≤ -4.2
G59A C76G G80C C116G C118G	≤ -4.2
C57U A89C C96G A97U C114U C125G G136A A137G	≤ -4.2
C57U A91U	-3.95
C57U G124U G128U	-3.76
G59U G71U C87A	≤ -4.2
G59C G94C G126A U139A	≤ -4.2
G59U C103U	-0.503
C57G A107G	≤ -4.2
G59C C93A C105A	≤ -4.2
C57G G71U C85U C93U A106G C114G G152A	≤ -4.2
C57U G84U C125U U151A	≤ -4.2
G59A U102G A113G U146G	≤ -4.2
C57U A97C G141C C149G	≤ -4.2
G58U G88U G92U	≤ -4.2

Variant	polymerase ribozyme fitness (log ratio)
G58A G59A A66U C93U A97C	≤ -4.2
G58A C72U C76G C99G A110C	≤ -4.2
G59U A106G C114U	-1.65
C57A G140A	≤ -4.2
C57U G86A C99G	-3.33
G59A C103U A107U C108G U145A	≤ -4.2
G58C A73U G92U G133C G141A	≤ -4.2
G58C A60G A89G C108U A147C	≤ -4.2
G58C G80A G84U A120C G152C	≤ -4.2
C57G A113G	-3.44
G58C C76G G92C	≤ -4.2
G59A G133U G136C U148C	≤ -4.2
G58U G59U C96G C123A C149U	-3.08
G59U G67C G74A U77G C93G C116A	≤ -4.2
C57G C85G G88A C125G U145A	≤ -4.2
C57G G58U C93A	-1.39
G59C G65C	≤ -4.2
G59A C93U U104G U148C	≤ -4.2
G58U C76A A89U A91U A107C U134A G141A	≤ -4.2
G59C A64G G84A C93U	≤ -4.2
C57U G58C G70A G84C	≤ -4.2
G58U U82G U102G U130G C131U	≤ -4.2
G58C A91G C93U G100U	≤ -4.2
C57U U102G	-1.87

Variant	polymerase ribozyme fitness (log ratio)
C57G C75G G94A A150C G152A	≤ -4.2
G58U A60G A137C	≤ -4.2
G59U A120G	-0.485
G59A C75A G124U G141C	≤ -4.2
G58A U61A C87A G117A	≤ -4.2
G58C A64C C69G C85U A110U U134G	≤ -4.2
C57A U146A	-0.0166
C57U A73U G81U C85G C95G A106U A115C G136A	≤ -4.2
G58A C76U U101G	0.481
C57U U61A C79A G92C	≤ -4.2
G59A U78A C95U C103G G152C	≤ -4.2
G59A C85G A97U A113C A150C	≤ -4.2
C57A G62A G86A A113G A120U U127C G136A A142C	≤ -4.2
G58A G80C G92C C99U A106G A147G	≤ -4.2
G58U A73C C85G C123A U135C	≤ -4.2
G59A C63U C85A U102G	≤ -4.2
C57U U61A C87A C96U	≤ -4.2
G58U U61A C96G A107C U109G	≤ -4.2
G59U A97C	-0.238
C57U U61A C72G	≤ -4.2
C57A U90G C105U	≤ -4.2
C57U C75U C123G U144C	-0.394
G58A C79A C85U A147C	≤ -4.2
G58U A91C A98U C103G C131U	≤ -4.2

Variant	polymerase ribozyme fitness (log ratio)
G58C G83A C116U U148A	≤ -4.2
C57U A60G U77A G80A G81U G133U	≤ -4.2
C57G C87A U144C	-3.75
C57U G80A	-0.314
G59C G124A U151C	-3.78
G58C A73G U101C C125G	-0.932
G59C C108A	≤ -4.2
C57G C76U G88A G92U	-3.96
G59A G100A U127G U135G G143A G152U	≤ -4.2
G59C A138G	-3.04
G59U C75U C87A C96G	≤ -4.2
G58A G59U A73U C87G U104A A120G U148C	≤ -4.2
C57G G84U	-1.79
C57G G84A	-0.518
C57U G59C C93A U135G	≤ -4.2
G59C C96G A147U U148C	≤ -4.2
C57A U101G	0.71
G58A A91U C116U A138C	≤ -4.2
G59C G68U A73G G92C A122U C123U	≤ -4.2
G58A A89G A110G C116G	≤ -4.2
G58A U77G G88A C103G A137U	≤ -4.2
G59A C93U A106G A121G G140A G141U	≤ -4.2
G58C C72A A110C A147G A150C	≤ -4.2
G58A A64U G92C	≤ -4.2

Variant	polymerase ribozyme fitness (log ratio)
G59U A66G G86U U109G C118U G140U	≤ -4.2
G58C C95U A150C	-3.72
C57G U82A G83U G141U	-1.49
C57U G59A G67C G94C G140U	≤ -4.2
C57A U61A G92U G94U U104A A106G C149U	≤ -4.2
G59U C105U A107G A120G	≤ -4.2
G58C U82A C95A C116U C131G	≤ -4.2
C57U G71C G84A A119C G124C	≤ -4.2
G58U C103G C132U A142U	≤ -4.2
G59A C99U U104G A107U U134G U135C	≤ -4.2
C57U G59U C96U C125G G143C U146C	≤ -4.2
G59A C85U C149G	-3.59
G59C C96G C118G A142U	-3.61
C57U A91G C108U	≤ -4.2
G58C G86U G88U U109A	≤ -4.2
C57G G68A A91U C99U A115U U139A	≤ -4.2
C57G G140C	-4.08
G58C A89C C95U A107C	≤ -4.2
G59A A142G	-0.65
G58A G59C A60C C75G G84A U90A U148C	≤ -4.2
C57U C103G	-1.7
G59A G94U C95A U104C	-2.63
G59C G86U	-1.67
